Test results taken from a collection of fitness landscapes (doi:10.1126/science.1257360).
The other results are listed elsewhere or left out.

B1: PhoQ; a variant is named by its letters at X, in order, P23837 (parent)
chain: MKKLLRLFFPLSLRVRFLLATAAVVLVLSLAYGMVALIGYSVSFDKTTFRLLRGESNLFYTLAKWENNKLHVELPENIDKQSPTMTLIYDENGQLLWAQRDVPWLMKMIQPDWLKSNGFHEIEADVNDTSLLLSGDHSIQQQLQEVREDDDDAEMTHSVAVNVYPATSRMPKLTIVVVDTIPVELKSSYMVWSWFIYVLSANLLLVIPLLWVAAWWSLRPIEALAKEVRELEEHNRELLNPATTRELTSLVRNLNRLLKSERERYDKYRTTLTDLTHSLKTPLXXLQXXLRSLRSEKMSVSDAEPVMLEQISRISQQIGYYLHRASMRGGTLLSRELHPVAPLLDNLTSALNKVYQRKGVNISLDISPEISFVGEQNDFVEVMGNVLDNACKYCLEFVEISARQTDEHLYIVVEDDGPGIPLSKREVIFDRGQRVDTLRPGQGVGLAVAREITEQYEGKIVAGESMLGGARMEVIFGRQHSAPKDE

Variants of: B1
Experiment: enrichment ratio after two sorts for PhoP signalling (ratio (wild type AVST 3.29)); higher = more functional
Conditions: with PhoP (E. coli)

Variant | enrichment ratio
HSGE | ≤ 0.25
VNMD | ≤ 0.25
ADIG | ≤ 0.25
WRTC | ≤ 0.25
QETS | ≤ 0.25
INEL | ≤ 0.25
HCKF | ≤ 0.25
AVMN | 18.8
KRTQ | ≤ 0.25
DHFV | ≤ 0.25
KGWR | ≤ 0.25
VSPF | ≤ 0.25
GRGT | ≤ 0.25
HLVD | ≤ 0.25
SYKS | ≤ 0.25
YVRQ | ≤ 0.25
VRYG | ≤ 0.25
FFWL | ≤ 0.25
GFFS | ≤ 0.25
DEHP | ≤ 0.25
TFTN | 1.1
FLAP | ≤ 0.25
QEWL | 9.38
DQLF | ≤ 0.25
AWHN | ≤ 0.25

Variant | enrichment ratio
HVSR | ≤ 0.25
MYTM | ≤ 0.25
EKRI | ≤ 0.25
FSRN | ≤ 0.25
CLLN | ≤ 0.25
QLAQ | ≤ 0.25
QKPN | ≤ 0.25
HVYI | ≤ 0.25
LWLC | ≤ 0.25
FDWK | ≤ 0.25
LDLL | 0.331
PYGY | ≤ 0.25
KVPE | ≤ 0.25
LCIL | ≤ 0.25
SWGR | ≤ 0.25
DVNC | ≤ 0.25
HYVP | ≤ 0.25
IPHM | ≤ 0.25
GDRT | ≤ 0.25
VVTM | ≤ 0.25
RMDK | ≤ 0.25
KKSE | ≤ 0.25
KYTE | ≤ 0.25
KGGR | ≤ 0.25
FWKH | ≤ 0.25

Variant | enrichment ratio
QAQP | ≤ 0.25
YYRN | ≤ 0.25
FPSC | ≤ 0.25
IIMP | ≤ 0.25
SAVS | 1.31
QIRH | ≤ 0.25
IILQ | ≤ 0.25
SNMG | 12.5
DEDF | ≤ 0.25
EKFR | ≤ 0.25
PITL | ≤ 0.25
LNDM | ≤ 0.25
EQAR | ≤ 0.25
HTPG | ≤ 0.25
GGVW | ≤ 0.25
FTAE | ≤ 0.25
EQVL | ≤ 0.25
NPTT | ≤ 0.25
WVFW | ≤ 0.25
LATG | ≤ 0.25
EHKF | ≤ 0.25
SDIM | 3.43
VQNP | ≤ 0.25
EHPA | ≤ 0.25
QTFA | ≤ 0.25

Variant | enrichment ratio
QDVC | ≤ 0.25
SRDQ | ≤ 0.25
EICS | ≤ 0.25
DELR | ≤ 0.25
NNQY | ≤ 0.25
FDHM | ≤ 0.25
VIPW | ≤ 0.25
IDVA | ≤ 0.25
DISM | ≤ 0.25
QFCR | ≤ 0.25
IVCL | ≤ 0.25
PVNQ | ≤ 0.25
RNCS | ≤ 0.25
AGPH | ≤ 0.25
VRGS | ≤ 0.25
WVHV | ≤ 0.25
DPID | ≤ 0.25
EWLF | ≤ 0.25
TNPD | ≤ 0.25
RIIN | ≤ 0.25
RARC | ≤ 0.25
VCWS | ≤ 0.25
GGRC | ≤ 0.25
NIMP | ≤ 0.25
QRGT | ≤ 0.25

Variant | enrichment ratio
VVCE | ≤ 0.25
FFWV | ≤ 0.25
NECN | ≤ 0.25
VVQL | ≤ 0.25
DTIG | ≤ 0.25
ESTT | ≤ 0.25
VLQW | ≤ 0.25
VVIL | ≤ 0.25
IERH | ≤ 0.25
PLYV | ≤ 0.25
YFNN | ≤ 0.25
TSAC | 10.9
KNPS | ≤ 0.25
KMLS | ≤ 0.25
DYSA | ≤ 0.25
EENG | ≤ 0.25
VTST | ≤ 0.25
PYMT | ≤ 0.25
QVFR | ≤ 0.25
FFCL | ≤ 0.25
DCLA | ≤ 0.25
RNPW | ≤ 0.25
LMTV | ≤ 0.25
HPAM | ≤ 0.25
LYFY | ≤ 0.25

Variant | enrichment ratio
YRNE | ≤ 0.25
DYEG | ≤ 0.25
WNHG | ≤ 0.25
ILRG | ≤ 0.25
YDNP | ≤ 0.25
HRPL | ≤ 0.25
AEEF | ≤ 0.25
FHIL | ≤ 0.25
YKYM | ≤ 0.25
WNSQ | ≤ 0.25
MQIS | ≤ 0.25
DPLM | ≤ 0.25
FAGF | ≤ 0.25
FNST | ≤ 0.25
PWPI | ≤ 0.25
LDHL | ≤ 0.25
KAFA | ≤ 0.25
TCFW | ≤ 0.25
FYAS | ≤ 0.25
SPWW | ≤ 0.25
FTLW | ≤ 0.25
NVAL | ≤ 0.25
IMMV | ≤ 0.25
WMAN | ≤ 0.25
GVLC | 5.21

Variant | enrichment ratio
HNVM | ≤ 0.25
AWRA | ≤ 0.25
FNYE | ≤ 0.25
HAHN | ≤ 0.25
FNCW | ≤ 0.25
HMDP | ≤ 0.25
TWDV | ≤ 0.25
LVWM | ≤ 0.25
YPGC | ≤ 0.25
QYLE | ≤ 0.25
KAWE | ≤ 0.25
FMCD | ≤ 0.25
QAHV | ≤ 0.25
TRAE | ≤ 0.25
GCNT | ≤ 0.25
KRAT | ≤ 0.25
WDLK | ≤ 0.25
PYMN | ≤ 0.25
FQTT | ≤ 0.25
QSLN | ≤ 0.25
AEPH | ≤ 0.25
LSTI | ≤ 0.25
ALRW | ≤ 0.25
PERA | ≤ 0.25
GMTD | ≤ 0.25

Variant | enrichment ratio
LLGM | ≤ 0.25
RPQF | ≤ 0.25
FAGN | ≤ 0.25
WKKV | ≤ 0.25
HVSG | ≤ 0.25
HYAR | ≤ 0.25
HMIN | ≤ 0.25
KHYA | ≤ 0.25
WFEY | ≤ 0.25
EYNM | ≤ 0.25
WYQY | ≤ 0.25
KTHR | ≤ 0.25
KCRL | ≤ 0.25
PKIR | ≤ 0.25
PNDQ | ≤ 0.25
QYDH | 0.815
YLYY | ≤ 0.25
VWNI | ≤ 0.25
PLAF | ≤ 0.25
LLDN | ≤ 0.25
